# Values joined by “and” are separate entries in the source; they are usually repeats but may differ in a detail not shown here. Equal entries are not always repeated. The campaign covered roughly 340,000 compounds. About 6,900 (2%) were called active. Rule as the data show it: active = inhibition above about 30%; inactive = below that, where a call was filed. Only a part is listed here, and it is no random draw. The source gives no active or inactive call for entries shown without one.
# Molecular target: D(2) dopamine receptor (Homo sapiens) (UniProt P14416)
# Test: HTS Assay for Allosteric Antagonists of the Human D2 Dopamine Receptor: Primary Screen for Antagonists; also: 0% is about no effect
# Conditions: HEK293 TREx D2 cells, calcium flux, dopamine EC80; at 10 µM; stronger effect = higher value
# How it was run: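 Read-out: kinetic calcium fluorescence (1 cycle/s) in inducible HEK293 T-REx D2 cells after an EC80 dopamine addition that followed 180 s compound preincubation. Loss of the dopamine response indicates antagonism.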
# Chain of UniProt P14416 (P14416 whole entry, looked up): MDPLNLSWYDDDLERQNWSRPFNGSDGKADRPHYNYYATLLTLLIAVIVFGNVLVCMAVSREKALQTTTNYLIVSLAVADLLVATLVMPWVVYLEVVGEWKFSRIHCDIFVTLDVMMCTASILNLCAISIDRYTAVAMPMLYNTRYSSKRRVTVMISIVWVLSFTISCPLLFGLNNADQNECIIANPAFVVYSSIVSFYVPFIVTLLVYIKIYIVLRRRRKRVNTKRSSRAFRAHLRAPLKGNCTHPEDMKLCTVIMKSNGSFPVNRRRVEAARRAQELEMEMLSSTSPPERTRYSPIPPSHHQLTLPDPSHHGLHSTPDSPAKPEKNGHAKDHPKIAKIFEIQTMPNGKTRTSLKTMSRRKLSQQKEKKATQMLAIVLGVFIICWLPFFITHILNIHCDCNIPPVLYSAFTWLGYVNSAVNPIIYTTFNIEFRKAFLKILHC
row,SMILES,inhibition
1,Cc1c(NC(=O)c2cc(=O)c3cc(Cl)ccc3o2)c(=O)n(-c2ccccc2)n1C,7.7%
2,Cc1cccc(-c2nc(Cn3c(SCc4cccc(C(F)(F)F)c4)nc4ccncc43)c(C)o2)c1,-4.3%
3,COc1ccccc1C1CCN(Cc2c(C)[nH]c3ccccc23)CC1,active: 56.2%
4,Fc1ccc2c(c1)NC(c1ccncc1)=NC(c1cccs1)=N2,5.19%
5,O=C(CCNS(=O)(=O)c1ccc2c(c1)CCN2C(=O)C1CC1)Nc1ccc(F)cc1F,-6.82%
6,Cc1cccc(NC(=O)c2cc(S(=O)(=O)N3CCC4(CC3)OCCO4)ccc2F)c1,-2.71%
7,CCOC(=O)c1ccc(NC(=O)Cn2cc(C(=O)c3ccc(Cl)cc3)c(=O)c3ccc(C)nc32)cc1,-13.6%
8,COc1ccc2oc(-c3ccc(C)c(NC(=O)Cc4ccc(Cl)cc4)c3)nc2c1,-12.5%
9,Cc1nc2cc(-c3ccccc3)nn2c(C)c1CCC(=O)N1CCN(c2ccccc2)CC1,6.36%
10,Cc1ccccc1CN1CCN(CC(=O)NCc2ccccc2Cl)C1=O,12.5%
11,O=C(NCCc1csc(-c2ccc(F)cc2)n1)c1ccc(Br)o1,-6.69%
12,CCSc1ncc(Cl)c(C(=O)Nc2c(C(=O)c3ccccc3)oc3ccccc23)n1,-1.45%
13,CCc1ccc(C(=O)Nc2ccc3nn(-c4ccc(C)c(Cl)c4)nc3c2)cc1,-5.32%
14,COc1cc(-c2nnc(SCCOc3ccc(C)c(Cl)c3)o2)cc(OC)c1OC,11.7%
15,CCOC(=O)CSc1nc2ccc(NC(=O)c3ccccc3)cc2s1,-0.803%
16,Cc1cc(C[n+]2cc(Br)ccc2N)c2ncccc2c1,active: 31.6%
17,COc1cccc(C(=O)c2cn(CC(=O)Nc3cccc(C)c3C)c3nc(C)ccc3c2=O)c1,4.97%
18,Cc1ccc(C)c(N2CCN(Cc3nnc(-c4ccccc4)o3)CC2)c1,3.88%
19,CCOCCCn1c(SCC(=O)Nc2ccc(OC)cc2OC)nc2ccccc2c1=O,0.738%
20,CCOC(=O)c1ccccc1NC(=O)Cn1c2ncccc2c(=O)n1-c1ccccc1,-1.42%
21,CCN(Cc1ccccc1)C(=O)CN1C(=O)COc2ccc(S(=O)(=O)N3CCCCCC3)cc21,-0.852%
22,COc1ccc(C2=NN(C(=O)CSc3nc(=O)n4cc(C)ccc4n3)C(c3ccc(C)cc3)C2)cc1 (stereo unspecified),active: 40.6%
23,Cc1ccc(NC(=O)CCS(=O)(=O)c2cccc3nsnc23)c(C)c1,0.963%
24,CCn1cc2nc(SCc3ccccc3F)n(Cc3ccc(C)cc3)c(=O)c2n1,-2.67%

row,SMILES,inhibition
1,COc1ccc(-c2noc(CCC(=O)NCCCN3CCN(c4ccc(F)cc4)CC3)n2)cc1,active: 95.3%
2,CCOc1ccc(NC(=O)CSc2nc(-c3ccc(F)cc3)cc(C(F)(F)F)c2C#N)cc1,-5.32%
3,CCCS(=O)(=O)Nc1cc2c(cc1NCc1ccccc1)n(C)c(=O)n2C,0.62%
4,Cc1ccc2cccc(NC(=O)C(C)(C)Oc3ccc(Br)cc3)c2n1,5.36%
5,CCOc1ccc(NC(=O)CCS(=O)(=O)c2ccc3c(c2)n(C)c(=O)c(=O)n3C)cc1,16.7%
6,N#C/C(=C\c1ccc(-c2cc(Cl)ccc2Cl)o1)C(=O)Nc1ccccc1C(=O)O,-12.1%
7,CC(C)(C)C(=O)Nc1cccc(C(=O)OCc2cc(=O)n3nc(C4CCCCC4)sc3n2)c1,-8.43%
8,CCOC(=O)c1[nH]cnc1C(=O)Nc1ccc(F)cc1,2.39%
9,CCCCN(C)CCNC(=O)c1nn(-c2ccc(OC)cc2)c(=O)c2c1c1ccccc1n2C,11.9% and active: 34.1%
10,Cc1cc(C)c(Cn2c(C(O)c3ccccc3)nc3ccccc32)c(C)c1 (stereo unspecified),-5.21%
11,COc1cccc(CNC(=O)CCNS(=O)(=O)c2ccc3c(c2)oc(=O)n3C)c1,-0.243%
12,NC(N)=NCCCC(NC(=O)c1ccccc1)C(=O)Nc1ccc2ccccc2c1 (stereo unspecified),active: 53.7%
13,COc1ccccc1-c1cc(C(=O)NCc2ccccc2)no1,active: 80.6%
14,CC1CCN(Cc2c(C#N)c3ccccc3n2C)CC1,active: 74.4%
15,CCC(=O)N1CCc2cc(Br)cc(S(=O)(=O)NCCc3ccccc3)c21,-27.1%
16,CCOC(=O)c1c(NC(=O)COc2ccc(F)cc2)sc2c1CCC(C)C2 (stereo unspecified),-6.31%
17,CC(NC(=O)C(=O)Nc1c2c(nn1-c1ccc(F)cc1)CSC2)c1ccccc1 (stereo unspecified),-8.68%
18,COc1ccc(CN2CCC(=O)N([C@H](CO)c3ccccc3)CC2)cc1,active: 52.5%
19,COc1cccc(CNC(=O)CCn2cccn2)c1,-11.3%
20,CCN1CCN(CCCNC(=O)c2ccc3c(c2)sc2nc(-c4ccc(OC)cc4)cn23)CC1,14.3%
21,CCOC(=O)c1c(-c2ccc(OC)cc2)oc2ccc(OCc3ccc(C(=O)OC)cc3)cc12,-1.08%
22,CCNc1c(NC(=O)c2cc(OCC)c(OCC)c(OCC)c2)c(=O)oc2ccccc12,-9.59%
23,COC(=O)c1nnn(CC(=O)Nc2ccc(Br)c(C)c2)c1N,-6.57%
24,Cc1ccc(-c2onc(C)c2C)cc1S(=O)(=O)NC1CCCCC1,-8.75%

row,SMILES,inhibition
1,CC1Cn2cc(C(=O)Nc3cccc(C(F)(F)F)c3)c(=O)c3c(Cl)ccc(c32)O1 (stereo unspecified),2.3%
2,Cc1ccc(-n2c(=O)c3c(c4cc(C)ccc4n3C)n(CC(=O)Nc3cc(C)cc(C)c3)c2=O)cc1,3.87%
3,Cc1ccc(C)c(NC(=O)c2cc(S(=O)(=O)NCCC3=CCCCC3)ccc2F)c1,23.7%
4,COc1ccc2c(c1)CCc1c(C(=O)Nc3c(C)nn(Cc4ccc(C)cc4)c3C)noc1-2,2.8%
5,COc1ccc(CNC(=O)C(C(C)C)N2Cc3ccccc3C2=O)cc1 (stereo unspecified),-4.31%
6,CCCN(CCC)C(=O)C1CCN(c2ncnc3c2nc2n3CCCCC2)CC1,-7.14%
7,CCOc1ccc(CCNC(=O)CN(c2ccc(C)cc2)S(=O)(=O)N(C)C)cc1OCC,6.53%
8,O=c1c(S(=O)(=O)c2ccccc2)cn(Cc2ccc(F)cc2)c2cc(N3CCCCC3)c(F)cc12,-4.32%
9,CNC(=S)N(CCc1cccc(C)c1)Cc1cc2cc(OC)c(OC)cc2[nH]c1=O,active: 30.3%
10,COc1c(C)cc(Br)cc1C(=O)O,active: 40.5%
11,COc1ccc(N(C)C(=O)CCS(=O)(=O)c2cccc3nsnc23)cc1,-5.85%
12,COc1cccc2sc(N(Cc3cccnc3)C(=O)C3COc4ccccc4O3)nc12 (stereo unspecified),6.9%
13,Cc1ccc(Nc2nc3ccccc3c3nncn23)cc1C,13.2%
14,Cc1c(NC(=O)c2ccccc2F)cccc1-c1nc2cccnc2s1,26.2%
15,CC(=O)N1CCCc2cc(S(=O)(=O)N(C)CC(=O)Nc3ccc(Cl)cc3C)ccc21,-21%
16,COc1ccc(NC(=O)c2ccc(COc3ccccc3OC)o2)cc1OC,-6.95%
17,CCn1cc(C(=O)NCc2ccccc2)c(=O)c2cc(S(=O)(=O)N3CCCCCC3)ccc21,3.48%
18,COc1cccc(CNC(=O)CCC(=O)N2Cc3cccc(OC)c3Oc3ncccc32)c1OC,3.52%
19,CCCNC(=O)CCc1c(C)nc2nc(-c3cc(OC)cc(OC)c3)nn2c1C,14.2%
20,COc1ccc(Br)cc1CNC(=O)C1CCCCN1S(=O)(=O)c1ccc(F)cc1 (stereo unspecified),-0.807%
21,Cc1ccc(OCc2nc3ccccc3n2Cc2ccccc2Cl)cc1,-4.93%
22,CCc1ccc(-c2[nH]c3c(c2-c2sc(C)c(C(=O)OC)c2O)c(=O)n(C)c(=O)n3C)cc1,23.5%
23,O=C(Cc1ccccc1)Nc1c(C(=O)Nc2ccccc2F)oc2ccccc12,15.7%
24,Cc1cccc(-n2nnnc2S(C)(=O)=O)c1,-14.6%

row,SMILES,inhibition
1,COC(=O)CNC(=O)CSc1nc2c(sc(=S)n2-c2ccccc2)c(=O)[nH]1,active: 44%
2,CSc1ccc(CCNC(=O)c2ccc(-n3c(C)cc4c3CCCC4)cc2)cc1,10.1%
3,Cc1cc(C(=O)NNC(=O)CCN2CCN(c3ccccc3)CC2)c2ccccc2n1,active: 66.9%
4,CC(=O)N1N=C(c2ccc(C)cc2)CC1c1cn(-c2ccccc2)nc1-c1cccs1 (stereo unspecified),-11.6%
5,O=C(CC12CC3CC(CC(C3)C1)C2)NCC(c1ccc(F)cc1)N1CCOCC1 (stereo unspecified),active: 40.1%
6,O=C(OCc1cc(=O)n2nc(-c3cccs3)sc2n1)c1ccc(F)cc1,13.2%
7,CCN(c1ccccc1)c1nnc(NC(=O)Nc2ccc(C)cc2)s1,-0.918%
8,CCOc1ccc(C(=O)Nc2cccc(-c3nc4cccnc4s3)c2C)cc1OCC,24%
9,COc1ccc(/C=C/c2nc(C#N)c(N3CCC(C)CC3)o2)cc1OC,-6.42%
10,Cc1ccc2nc3c(cc(C#N)c(=O)n3-c3nnc(SCc4ccccc4Cl)s3)c(=O)n2c1,2.32%
11,COc1ccc(Nc2ncc3c(n2)CCN(Cc2ccc(Br)s2)C3)c(OC)c1,-21.1%
12,Cc1ccc(C)c(N2CCN(S(=O)(=O)c3cc(C(=O)Nc4cc(Cl)cc(Cl)c4)ccc3F)CC2)c1,-6.43%
13,Cc1cccc(-c2nc(CSCC(=O)N3CCN(c4cccc(C)c4C)CC3)c(C)o2)c1,-19.8%
14,CCc1ccc2c(c1)NC(c1cccnc1)=NC(c1ccc(C(C)(C)C)cc1)=N2,-20.7%
15,Cc1ccc(Cl)cc1NC(=O)c1cc(S(=O)(=O)N2CCCCCC2)cn1C,3.53%
16,COc1cc(C2CC(=O)Nc3c2c(C)nn3-c2nncc(-c3ccccc3)n2)cc(OC)c1OC (stereo unspecified),-10.2%
17,O=C(CSc1nc(-c2cccs2)nc2cc(=O)[nH]n12)Nc1ccccc1Cl,3.11%
18,O=C(Nc1ccccc1Cl)c1cc2c(-c3ccccc3)nn(-c3ccccc3)c2s1,0.558%
19,Cc1ccc2nc(-c3ccc(Cl)c(NC(=O)c4ccc(Br)o4)c3)oc2c1,-4.54%
20,CSc1ccc(CCNC(=O)c2ccc(CS(=O)Cc3ccc(Cl)cc3)o2)cc1 (stereo unspecified),-17%
21,O=C(COCc1cc(-c2ccc3c(c2)OCO3)on1)NCc1ccc(F)cc1,6.63%
22,Cc1nn(-c2ccccc2)c2sc(C(=O)Nc3cccc(O)c3)cc12,20.3%
23,O=C(NC1CCN(Cc2ccccc2)CC1)C1COc2ccccc2O1 (stereo unspecified),active: 34.2%
24,Cc1ccc(-n2ncc(C(=O)Nc3c(Cl)cccc3Cl)c2C2CCNCC2)cc1,-1.21%

# Reference: PubChem BioAssay AID485344 (National Center for Advancing Translational Sciences (NCATS), 2010)
